# Assay results as given in PubChem BioAssay AID588591 (National Center for Advancing Translational Sciences (NCATS), 2011).
# Out of some 390,000 compounds screened, about 4,700 (1.2%) were called active. Inconclusive results, whose numbers are uncertain, are shown with a selection of clear calls. Calls follow the shape of the dose curve; as a rule, active = well fitted inhibition curve with a large enough effect; inconclusive = small, poorly fitted or top-dose-only effect, or another doubt; inactive = no such curve, though single readings can be large or run the other way. Potencies beside an inconclusive call are fits to weak or partial responses and may not hold up.
# Molecular target: DNA polymerase eta (Homo sapiens) (UniProt Q9Y253)
# Chain of UniProt Q9Y253 (Q9Y253 whole entry, looked up): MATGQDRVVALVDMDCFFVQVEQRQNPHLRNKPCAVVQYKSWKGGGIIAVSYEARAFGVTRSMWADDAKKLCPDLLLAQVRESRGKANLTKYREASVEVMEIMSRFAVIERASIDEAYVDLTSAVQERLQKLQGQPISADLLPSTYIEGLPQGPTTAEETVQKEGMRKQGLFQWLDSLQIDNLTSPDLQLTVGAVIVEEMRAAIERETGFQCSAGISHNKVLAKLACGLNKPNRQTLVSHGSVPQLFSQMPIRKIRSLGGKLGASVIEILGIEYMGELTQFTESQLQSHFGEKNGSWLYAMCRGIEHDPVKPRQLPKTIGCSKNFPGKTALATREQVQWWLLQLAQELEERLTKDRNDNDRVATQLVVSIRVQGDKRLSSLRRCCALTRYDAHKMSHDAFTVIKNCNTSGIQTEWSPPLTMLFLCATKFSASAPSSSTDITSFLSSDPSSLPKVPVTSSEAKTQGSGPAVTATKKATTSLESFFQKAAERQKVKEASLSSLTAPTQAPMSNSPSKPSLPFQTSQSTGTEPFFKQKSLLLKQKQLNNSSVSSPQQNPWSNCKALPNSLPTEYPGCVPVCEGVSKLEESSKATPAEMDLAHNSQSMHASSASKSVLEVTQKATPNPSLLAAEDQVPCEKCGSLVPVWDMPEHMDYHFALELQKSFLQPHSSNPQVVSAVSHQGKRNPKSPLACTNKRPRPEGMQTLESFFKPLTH
# Test: qHTS for Inhibitors of Polymerase Eta
# Settings: recombinant Pol eta, fluorescent DNA replication assay; series mostly up to 114 µM; activity change, negative = inhibition: at the top concentration
# Outline: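 Fluorescent replication assay: 50 nM final substrate added after a 15 min room-temperature compound preincubation with 10 nM enzyme. Signal taken at 0 min and again at 10 min.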
# % is scaled to controls: 0 for no effect and ±100 for the full control effect; potency is read from the fitted curve at half-maximal effect; tags tell the direction and shape of the fitted curve.
Compound,Potency,"activity change, negative = inhibition"
CC(=O)NS(=O)(=O)c1ccc(NC(=O)c2ccc3c(c2)NC(=O)CS3)cc1,"inconclusive: 44.7 µM [inhibitor, partial curve]",
O=C(O)COc1ccccc1/C=C1\SC(=Nc2ccc(F)cc2)N(c2ccc(F)cc2)C1=O,active: 56.2 µM,
Cc1ccc(NC(=O)CN(C)C(=O)Cn2ncc(Cl)c(Cl)c2=O)cc1,"inconclusive: 22.4 µM [inhibitor, full curve, poor fit]",
Cc1ccc(C)c(NC(=O)C2CCN(c3cc(C)nc4c(-c5ccc(Cl)cc5)c(C)nn34)CC2)c1,,inactive: -18%
CC(=O)C1=C(O)CCC1=N,"inconclusive: 31.6 µM [inhibitor, partial curve, poor fit]",
COc1ccccc1CN1CC(C(=O)NCc2cc(F)ccc2C)CCC1=O (stereo not drawn),"inconclusive: 79.4 µM [inhibitor, partial curve, poor fit]",
CC(C)N1C(=O)S/C(=C/c2ccccc2OCc2ccc(C(=O)O)cc2)C1=O,active: 89.1 µM,
Cc1ccc(C(NC(=O)N2CCOCC2)=C(Cl)Cl)cc1F,"inconclusive: 89.1 µM [inhibitor, partial curve, poor fit]",
CSc1nc2sc3c(c2c(=O)[nH]1)CCCC3,"inconclusive: 17.8 µM [inhibitor, partial curve, poor fit]",
O=C(NNc1cccc(Cl)n1)c1ccc(Cl)cc1Cl,,inactive: -13.4%
C=C(C)C(=O)Nc1cccc(C2=NOC3(C2)C[C@@H](C(N)=O)N(C(=O)/C=C/C=C/C)C3)c1 (stereo partly drawn),active: 3.16 µM,
O=C(c1ccc(F)cc1F)N1CCCc2ccccc21,"inconclusive: 39.8 µM [inhibitor, single point]",
CCOc1ccccc1N1CCN(S(=O)(=O)c2ccc(C3CCCCC3)cc2)CC1,,inactive: 1%
O=C(CSc1nccn1-c1ncc(C(F)(F)F)cc1Cl)c1ccc(Cl)cc1,"inconclusive: 50.1 µM [inhibitor, partial curve, poor fit]",
CC(C)c1ccc(NC(=O)Cn2cc(S(=O)(=O)Cc3ccccc3Cl)c3ccccc32)cc1,,inactive: -7.24%
N#CC1=C(SCC(=O)Nc2ccc(C(=O)O)cc2)NC(=O)CC1c1ccco1 (stereo not drawn),active: 20 µM,
Cc1ccccc1CSCc1nc(N)nc(Nc2ccccc2C)n1,"inconclusive: 79.4 µM [inhibitor, partial curve, poor fit]",
CC(C)C(=O)Nc1ccc2nc(SCC(=O)N3CCc4ccccc43)sc2c1,,inactive: -3.29%
CC(C)C(=O)Nc1ccccc1C(=O)N/N=C/c1ccc([N+](=O)[O-])cc1,"inconclusive: 31.6 µM [inhibitor, single point]",
COc1ccc(C(=O)COC(=O)CNC(=O)C2CCCCC2)c(OC)c1,"inconclusive: 20 µM [inhibitor, partial curve]",
COCCn1c(C)cc(C(=O)COC(=O)c2ccc3ncsc3c2)c1C,"inconclusive: 22.4 µM [inhibitor, partial curve, poor fit]",
NC(=O)c1c(NC(=O)Cn2nc(C(=O)O)c3ccccc3c2=O)sc2c1CCCC2,"inconclusive: 15.8 µM [inhibitor, full curve, poor fit]",
CC(=O)c1ccc(NC(=O)c2ccc3c(Cl)c4c(nc3c2)CCCC4)cc1,"inconclusive: 1.41 µM [inhibitor, full curve, poor fit]",

Compound,Potency,"activity change, negative = inhibition"
Cc1cccc(C(=O)N2CCc3cc(CNS(=O)(=O)c4ccc(F)c(Cl)c4)ccc32)c1,,inactive: -4.85%
CC[C@@H](C)CN1C(=O)N[C@@H](c2ccccc2)C(C(C)=O)=C1C,active: 22.4 µM,
CC(=O)c1ccc(-n2c(-c3cc(-c4ccco4)[nH]n3)n[nH]c2=S)cc1,"inconclusive: 35.5 µM [inhibitor, single point]",
O=C(Nc1ccc2snnc2c1)N1CCN(c2ccccc2)CC1,"inconclusive: 4.47 µM [inhibitor, full curve, poor fit]",
O=C(O)c1ccc(Cl)cc1Nc1nc2cc(Cl)ccc2o1,"inconclusive: 79.4 µM [inhibitor, partial curve]",
CC(C)(C)[C@H]1C=C(C(=O)N2CCOCC2)O[C@@H](OCc2ccc(CO)cc2)C1,,inactive: -2.15%
COc1cc(OC)cc(C(=O)NNC(=O)CCOc2ccccc2OC)c1,"inconclusive: 100 µM [inhibitor, single point]",
COc1ccc(NS(=O)(=O)c2ccc3[nH]c4c(c3c2)CCCCC4)cc1,,inactive: -9.48%
CS(=O)(=O)NCC(c1ccco1)N1CCN(c2ccccc2)CC1 (stereo not drawn),,inactive: -11.8%
CC1=NN(c2nc(N)nc(/C(C#N)=C/c3ccc([N+](=O)[O-])o3)n2)C(C)(C)C1,active: 17.8 µM,
COc1ccc(C(=O)COC(=O)c2cccnc2Cl)c(OC)c1,active: 50.1 µM,
Cc1ccc2nc(NC(=O)c3ccc(-c4nc5ccccc5s4)s3)sc2c1,"inconclusive: 10 µM [inhibitor, full curve, poor fit]",
Cc1c(Cl)cnc(NC(=O)COC(=O)[C@@H](NC(=O)c2ccco2)C(C)C)c1Cl,active: 50.1 µM,
COC(=O)c1sc(N)c(C(=O)OC)c1COC(=O)CCNS(=O)(=O)c1ccc(C)cc1,"inconclusive: 89.1 µM [inhibitor, single point]",
[O-]/C(=C(\C(=S)NCc1ccco1)[n+]1ccccc1)c1ccccc1Br,"inconclusive: 35.5 µM [inhibitor, single point]",
Cc1ccnc(NS(=O)(=O)c2ccc(NC(=O)c3ccc(N4C(=O)CCC4=O)cc3)cc2)n1,active: 8.91 µM,
NC(=O)c1ccsc1NC(=O)c1ccc(N2CCCC2=O)cc1,active: 25.1 µM,
O=C(Cc1cc(=O)oc2cc(O)ccc12)NCC1CCC(C(=O)O)CC1 (stereo not drawn),"inconclusive: 4.47 µM [inhibitor, full curve, poor fit]",
CCOc1ccc(-c2csc(NC(=O)c3ccco3)n2)cc1,"inconclusive: 44.7 µM [inhibitor, partial curve, poor fit]",
O=C(CSc1nc2ccccc2s1)c1cc2ccccc2o1,"inconclusive: 50.1 µM [inhibitor, single point]",
CC(NC(=O)COC(=O)c1cc([N+](=O)[O-])ccc1N1CCOCC1)c1ccc(F)cc1 (stereo not drawn),active: 56.2 µM,
CC(C)COC(=O)N1CC(O)CC1C(=O)O (stereo not drawn),"inconclusive: 39.8 µM [inhibitor, single point]",
CCc1ccc(C(C(=O)NC2CCCCC2)N(C(=O)c2csnn2)C2CC2)cc1 (stereo not drawn),,inactive: -8.6%

Compound,Potency,"activity change, negative = inhibition"
Cc1cc(C(=O)CSc2nnc(-c3ccco3)o2)c(C)n1C,,inactive: -6.06%
CCc1ccccc1Nc1nn2c(=O)c3ccc(C(=O)NCc4cccs4)cc3nc2s1,"inconclusive: 79.4 µM [inhibitor, partial curve]",
CCc1noc(C)c1C(=O)OCC(=O)c1ccc(OC)c(OC)c1,"inconclusive: 89.1 µM [inhibitor, single point]",
COc1cc(OC)c2c(c1O)OC(c1ccccc1)CC2=O (stereo not drawn),active: 12.6 µM,
CC(C)CCNC(=O)NC(=O)COC(=O)/C=C/c1cc(Br)ccc1F,,inactive: -0.0309%
N/C(Cc1ccc(Cl)cc1Cl)=N\OC(=O)Cc1ccccc1,"inconclusive: 79.4 µM [inhibitor, partial curve, poor fit]",
O=C(Nc1cccc(Cl)c1N1CCCC1)c1cc2ccccc2o1,"inconclusive: 50.1 µM [inhibitor, partial curve, poor fit]",
CN1/C(=C\C=C2/SC(=S)NC2=O)C(C)(C)c2ccccc21,active: 79.4 µM,
COc1ccc(C(C)(C)C)cc1NC(=O)c1cc(S(=O)(=O)N(C)C)ccc1N1CCCC1,"inconclusive: 79.4 µM [inhibitor, partial curve, poor fit]",
CC1=C(C(=O)Nc2cccnc2)C(c2ccc(F)cc2)n2nc(SCc3ccccc3F)nc2N1 (stereo not drawn),,inactive: 3.11%
Cc1ccc(N2NC(=O)/C(=C\c3cc4c(cc3[N+](=O)[O-])OCO4)C2=O)cc1C,"inconclusive: 50.1 µM [inhibitor, partial curve]",
Cc1ccc(C)c(N2CCN(C(=O)C3CCN(S(=O)(=O)c4cn(C)cn4)CC3)CC2)c1,,inactive: -5.77%
COc1cc2c(cc1OC)CN(C(=O)c1ccc([N+](=O)[O-])o1)CC2,"inconclusive: 17.8 µM [inhibitor, full curve, poor fit]",
CC(=O)Nc1ccc(Nc2nc3ccccc3nc2NS(=O)(=O)c2ccc(Cl)c([N+](=O)[O-])c2)cc1,active: 22.4 µM,
N#Cc1cc(C#N)c(SCC(=O)N2CC(=O)Nc3ccccc32)nc1N,"inconclusive: 35.5 µM [inhibitor, partial curve, poor fit]",
CCOc1ccccc1NC(=O)C(Cc1ccccc1)NS(=O)(=O)c1ccc(Br)s1 (stereo not drawn),,inactive: -15.6%
Cc1cc(NC(=O)CSc2nc3c([nH]c4ccccc43)c(=O)n2-c2cccc(Cl)c2)no1,,inactive: -3.23%
O=C(Cc1ccccc1)N/N=C/c1ccc(OCC(=O)Nc2ccccc2)cc1,"inconclusive: 39.8 µM [inhibitor, partial curve, poor fit]",
CC(=O)c1ccc(S(=O)(=O)Nc2ccc(-c3cn4c(n3)SCC4)cc2)cc1,"inconclusive: 70.8 µM [inhibitor, partial curve, poor fit]",
COc1ccc(-c2cc(C(=O)Nc3ccc(O)cc3)c3ccccc3n2)cc1OC,"inconclusive: 89.1 µM [inhibitor, partial curve, poor fit]",
CCN1C(=O)/C(=C2/Sc3ccccc3N2CCCS(=O)(=O)O)SC1=S,"inconclusive: 15.8 µM [inhibitor, full curve, poor fit]",
CC(C)c1cc(CNC(=O)c2ccc(OC3CCN(Cc4ccccn4)CC3)cc2)on1,,inactive: -12%
